Source: ChEMBL document CHEMBL4888484, “Replenishing the malaria drug discovery pipeline: Screening and hit evaluation of the MMV Hit Generation Library 1 (HGL1) against asexual blood stage Plasmodium falciparum ,using a nano luciferase reporter read-out” (2022)
Hit rate of the full screen: of about 150,000 compounds, about 540 (0.36%) showed an effect of 50% or more. This is one part of the list.

System: Plasmodium falciparum
Assay: Primary screen in NF54 nanoGlo assay, in single point, at 2uM, 72h; a lower Z score goes with more inhibition
Format: functional, Erythrocyte
Settings: timepoint 72 hour

Structure (SMILES) | % Inhibition [%] | Z score
CCn1nnc2cc(C(=O)N3CC=C(c4c[nH]c5ccccc45)CC3)ccc21 | 3 | -0.31
Cn1oc(C(=O)Nc2ccc(Cl)cc2Nc2ccccc2)cc1=O | -23 | 2.35
Cc1noc([C@H]2CC(=O)N(c3ccc4c(c3)CCC4)C2)n1 | 0 | -0.06
O=C(N[C@H]1CCN2C(=O)c3cc(-c4ccccc4)ccc3NC(=O)[C@H]12)c1cnccn1 | -10 | 1.54
CCc1ccc(CN2CCc3c(C(=O)N[C@H]4CCN(C)C4=O)csc3C2)nc1 | -5 | 0.9
CNc1cc(Cl)ccc1OC[C@H]1CCOC1 | -3 | 0.37
Cc1n[nH]c(C)c1CCc1nc(-c2c(C)ncc3c2CCNC3)no1 | -5 | 0.66
Cn1cnnc1N1CCN(C(=O)Nc2c[nH]nc2-c2nccs2)CC1 | 6 | -0.61
O=S(=O)(c1ccsc1)N1CCC(OCC2CCCC2)CC1 | 12 | -1.6
CN(Cc1ccncc1)Cc1ccc2c(c1)CCO2 | 35 | -4.71
CCOC(=O)c1cc(-c2cccc(NC(=O)COc3cccc(Cl)c3)c2)n(-c2ccccc2F)n1 | -8 | 0.94
O=C(c1ccccc1Cl)N1CCN(S(=O)(=O)c2ccc3c(c2)CCCC3)CC1 | -4 | 0.31
COC(=O)c1c(-c2cccc(Cl)c2)noc1Nc1ccc(F)cc1 | -3 | 0.6
CS(=O)(=O)N1CCC[C@H](Cn2ccnc2C2CCCC2)C1 | -14 | 2.56
COC(C)CS(=O)(=O)NC1CCCCC1n1cccn1 (stereo not drawn) | -10 | 1.37
COc1ccc(-c2cnnc(N3C[C@@H](C)O[C@@H](C)C3)n2)cc1F | -17 | 1.86
Cc1ncncc1C(=O)NC[C@H](O)c1ccc(O)cc1 | -1 | 0.2
CCNc1nc(C)c(C(=O)N[C@H]2CN(CCCO)C[C@@H]2C2CC2)s1 | -4 | 0.58
Cc1nc(-c2ccccc2)c(C(=O)N2CC[C@H](CO)[C@@H](O)C2)s1 | -6 | 0.63
COc1cccc2c1OC[C@@H](C(=O)Nc1cc(-c3ccc(=O)[nH]n3)ccc1C)C2 | -9 | 1.16
O=C(NCC1CCN(C(=O)c2cc3ccccc3o2)CC1)NC1CCCCCC1 | -5 | 0.75

Structure (SMILES) | % Inhibition [%] | Z score
CCc1cc(O)ccc1NC(=O)CN(C)C | 0 | -0.06
Cc1nc(-c2nc(CCc3c(C)nc(O)nc3C)n(C(C)(C)C)n2)cs1 | -5 | 0.93
C[C@H]1CCN(c2cc(C(=O)Nc3nn(C)cc3C#N)ccn2)C1 | -8 | 0.91
CCCN(Cc1ccco1)C[C@H](O)COCc1ccccc1 | -8 | 1.09
CCCOc1ccc(Cl)cc1C(N)=O | -48 | 5.58
CC(C)CN(CC(N)=O)CC(=O)Nc1sccc1C(N)=O | -4 | 0.32
CC(C)NC(=O)C1=CCN(C(=O)c2ccccc2F)CC1 | -2 | 0.34
C[C@@H](CC1CN(C(=O)OC(C)(C)C)C1)NC(=O)C(C)(C)CO | -10 | 1.56
Cc1ccc(NC(=O)[C@]2(C)CCCO2)c(CN(C)C)c1 | -10 | 1.31
Cn1nc2c(cc1=O)C[C@@H](C(=O)N1CCN(c3ccccc3F)CC1)CC2 | -9 | 1.14
CCC(NC(=O)NC1CC2OCCCC12)c1ccc(F)cc1F (stereo not drawn) | 18 | -2.28
CCOc1ccc(S(=O)(=O)N2C[C@H]3CN(C(C)=O)CC[C@@]3(CO)C2)cc1 | -22 | 2.58
Nc1ccc(N2CCN(c3ccc(C(F)(F)F)nn3)CC2)cn1 | 8 | -0.94
O=C(CC=Cc1ccc(F)cc1)N[C@H]1CC[C@@H](C(=O)O)C1 | 9 | -1.21
CC(C)c1noc(-c2cccnc2-n2cnc(C(=O)Nc3cccc(F)c3)c2)n1 | -4 | 0.48
CCOCCNC(=O)N[C@@H](C)c1csc(C2CC2)n1 | -8 | 0.9
Cc1noc(C)c1C(=O)NC1CCC(C)(C)CC1C (stereo not drawn) | 9 | -1.01
CCOC1CC(NC(=O)c2ccc(OC)cc2)C12CCCO2 (stereo not drawn) | 0 | 0.08
CCOC(=O)[C@H](N)c1ccc(OC(C)C)cc1 | -11 | 1.23
COCCCn1c(C)cc(C(=O)N2C[C@H]3C(=O)N(CCOC)CCN3C(=O)[C@@H]2C)c1C | -18 | 1.59
CCCc1nnc([C@H]2CCN(Cc3cccs3)C2)o1 | 1 | -0.17

Structure (SMILES) | % Inhibition [%] | Z score
O=C(Nc1cc(-n2ccnc2)ncn1)c1ccncc1 | 1 | -0.11
CCOC(=O)c1csc([C@@H]2CCCN2C(=O)c2ccc(C(=O)O)cc2)n1 | -7 | 0.77
COCc1nocc1C(=O)Nc1ccnn1[C@H]1CCCc2ccccc21 | -11 | 1.71
CN(C(=O)[C@H]1CCS(=O)(=O)C1)c1ccccc1 | -11 | 1.59
Cn1nccc1CNC(=O)N1CCN(c2cccs2)CC1 | -8 | 1.12
Cc1nn(C)c(C)c1S(=O)(=O)N1CCCCc2ccccc21 | -18 | 1.76
Cc1noc([C@H]2CCN(C(=O)NCc3ccc(F)cc3)C[C@H]2NC(=O)C2CCOCC2)n1 | 8 | -1.46
Cc1ccc(OCC(=O)N2CCOC3CCCCC32)cc1 (stereo not drawn) | -7 | 0.94
O=C1NC2(CCCCC2)C(=O)N1Cc1nc2ccccc2s1 | -5 | 0.52
COc1cc(NC(=O)Nc2ccccc2F)cc2sc(NS(=O)(=O)c3ccccc3)nc12 | 35 | -3.95
NC(=O)c1coc(CNC(=O)c2cccc(N3CCCC3)c2)n1 | -7 | 0.91
Cc1ncccc1NC(=O)N(Cc1ccccc1)[C@@H](CO)C(C)C | -6 | 0.93
COc1ccc(O)c([C@H]2Nc3ccccc3-n3c(-c4ccc(C)cc4)c4c(=O)n(C)c(=O)n(C)c4c32)c1 | 25 | 0.19
COc1ccc(-c2noc(-c3nc(Cc4ccccc4)no3)n2)cc1OC | -16 | 1.45
CC(C)[C@H](CNC(=O)c1cc2c(cc1Br)NC(=O)CO2)c1cccnc1 | 0 | 0.02
CCOCc1nnc(NCc2cnc3ccc(C)cn23)o1 | -5 | 0.79
Cc1ccccc1C(=O)NCC1=CCCN(Cc2cccc(C#N)c2)C1 | -2 | 0.53
CC[C@]1(C(=O)NCc2ccc(OC)cc2OC(F)F)CCNC1 | -13 | 1.28
Cc1[nH]cnc1CN1CCC(CCC(=O)Nc2ccc3c(c2)OCCO3)CC1 | -6 | 0.93
Cc1cnn(C)c1S(=O)(=O)Nc1cc(C(F)(F)F)c(Br)cn1 | 9 | -1.66
CC1(C)CC(=O)N(Cc2ccccc2)[C@@]1(C)O | -4 | 0.73

Structure (SMILES) | % Inhibition [%] | Z score
Cc1cc(CNCCn2cccn2)on1 | -7 | 1.24
COc1cc(-c2n[nH]cc2CN2CCC([C@H](C)N3CCOCC3)CC2)cc(OC)c1OC | -14 | 1.6
CN(CC#N)S(=O)(=O)c1cccc(F)c1F | -7 | 0.85
CN1CC(=O)N(c2cccc(NC(=O)NC[C@H]3COCCO3)c2)C1=O | 2 | -0.44
CC(C)Oc1ccc(CNC(=O)CC2CCN(C(=O)c3ccc4oc(C5CC5)nc4c3)CC2)cc1 | 5 | -0.59
Cc1ccc(CN(C(=O)c2cccs2)c2cccc(CC(=O)N(C)Cc3ccccc3)c2)cc1 | 5 | -0.48
COc1ccc2c(c1)C(N1CCCN(C(=O)c3cc(F)cc(F)c3)CC1)=Nc1ccccc1O2 | 6 | -0.79
CCn1c(=O)c(C(=O)NCc2ccc(F)cc2)nn(-c2cccc(C)c2)c1=O | -6 | 1.17
CC1(C)CN(C(=O)c2cccc(N3CCCC3=O)c2)C[C@]1(C)O | -6 | 1.16
c1cc(CN2CCC(N3CC4(CCCCC4)[C@H]3c3ccncc3)CC2)ccn1 | 1 | -0.19
CNC(=O)NC(=O)COc1ccc(Cl)cc1Cl | -2 | 0.27
CCN1Cc2nc(OC)c(CNC(=O)CCc3c(C)nn(C)c3C)cc2C1=O | -6 | 1.13
Cc1nn2c(c1-c1ccccc1)N=C(c1ccccc1O)C[C@H]2c1ccccc1 | -3 | 0.37
Cc1cc(C(F)(F)F)n(C[C@@H](C)CNC(=O)c2cn(C)c(=O)[nH]c2=O)n1 | -1 | 0.19
CC(C)c1cc(NC(=O)NCC[C@H]2CCC(=O)N2CCN(C)C)n(C)n1 | 1 | -0.25
CCC1(C)CC(c2csc(N)n2)CCO1 (stereo not drawn) | 0 | -0.04
CN(C)Cc1ccnc(NC(=O)c2cc(C3CC3)[nH]n2)c1 | 2 | -0.31
CCn1c(-c2cc(NC(=O)Cc3ccc(OC)cc3)[nH]n2)cc2ccc(OC)cc21 | 1 | -0.1
CNc1nc(-c2cc(C(=O)C(Cl)(Cl)Cl)n(C)c2)cs1 | -3 | 0.53
O=C(Nc1nc2c(s1)CCC2)c1ccc(Nc2ncccn2)cc1 | 6 | -0.81
COc1ccccc1C1CN(CC(=O)NC(CCn2ccnc2)c2ccccc2)Cc2ccccc2O1 (stereo not drawn) | 15 | -1.94
